Over roughly 110,000 compounds, “z-score” has its median near -0.1; the highest 2% begin near 2. The list shows a part of the results. Activity calls are given as the source filed them.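 How the source made its calls: active means z-score in the third read window above 3 or below -3; inactive means the rest.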
molecular target: Metabotropic glutamate receptor 8 (Rattus norvegicus) (UniProt P70579); assay: rat mGluR8 modulators via GIRK flux, primary screen, cell-based, thallium flux, HTS (AID 488969); conditions: HEK293 rat mGluR8, GIRK (G protein-gated inwardly rectifying potassium channel) thallium flux, FluoZin2; at 10 µM; stronger effect = higher value; submaximal glutamate (EC20) added with thallium
Chain of UniProt P70579 (P70579 whole entry, looked up): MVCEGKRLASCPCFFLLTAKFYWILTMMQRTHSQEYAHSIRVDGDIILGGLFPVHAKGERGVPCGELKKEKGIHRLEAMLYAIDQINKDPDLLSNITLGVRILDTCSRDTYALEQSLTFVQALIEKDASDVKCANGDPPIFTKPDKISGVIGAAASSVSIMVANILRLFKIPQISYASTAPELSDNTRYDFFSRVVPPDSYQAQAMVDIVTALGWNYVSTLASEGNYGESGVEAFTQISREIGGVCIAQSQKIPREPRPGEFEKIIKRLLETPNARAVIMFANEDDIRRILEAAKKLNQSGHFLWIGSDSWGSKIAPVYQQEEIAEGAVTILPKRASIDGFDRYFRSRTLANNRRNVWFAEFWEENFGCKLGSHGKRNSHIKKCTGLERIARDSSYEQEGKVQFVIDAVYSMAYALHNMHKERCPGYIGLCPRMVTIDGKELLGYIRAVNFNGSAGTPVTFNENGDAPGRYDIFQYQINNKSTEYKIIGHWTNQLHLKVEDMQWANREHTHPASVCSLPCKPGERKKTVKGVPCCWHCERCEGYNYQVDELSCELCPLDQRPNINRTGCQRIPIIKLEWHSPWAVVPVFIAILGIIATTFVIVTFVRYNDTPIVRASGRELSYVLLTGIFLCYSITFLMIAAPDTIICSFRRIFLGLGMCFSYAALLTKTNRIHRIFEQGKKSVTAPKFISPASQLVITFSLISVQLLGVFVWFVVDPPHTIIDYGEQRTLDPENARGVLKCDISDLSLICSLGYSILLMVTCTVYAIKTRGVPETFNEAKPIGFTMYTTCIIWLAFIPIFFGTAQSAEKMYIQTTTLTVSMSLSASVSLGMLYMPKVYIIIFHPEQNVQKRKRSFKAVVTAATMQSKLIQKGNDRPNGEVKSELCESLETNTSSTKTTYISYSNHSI

Row | Compound | z-score
1 | O=C(Nc1ccc(F)cc1F)c1cccn1-c1ncc(C(F)(F)F)cc1Cl | -0.267
2 | C/C(=N/NC(=O)c1sc(NS(=O)(=O)c2ccccc2)nc1C)c1ccc(F)cc1 | -0.895
3 | Cc1ccccc1Oc1ncccc1C(=O)/C(C#N)=C/N(C)C | 0.0796
4 | CCOC(=O)N1CCN(C(=O)Nc2ccc3nc(C)c(C)nc3c2)CC1 | 0.246
5 | Cc1ccc(COc2ccc(/C=N/NC(=O)c3ccc(CN4CCOCC4)cc3)cc2)cc1 | 0.76
6 | Cc1ccc(-c2nc3ncccn3c2NC(=O)C2CC2)cc1 | 0.268
7 | O=C(/C=C/c1ccc2c(c1)OCO2)Nc1nc2ccccc2s1 | -0.342
8 | COc1ccc(CNS(=O)(=O)c2ccc(C3CNC(=O)C3)cc2)cc1 (centres undefined) | 0.726
9 | Cc1nc2sc(C(c3ccccc3)N3CCN(C(=O)c4ccco4)CC3)c(O)n2n1 (centres undefined) | 0.788
10 | Cc1ccc(CSCC(=O)N2CCN(Cc3ccc4c(c3)OCO4)CC2)cc1 | 0.00333
11 | COc1ccc(C(=O)n2cc(C(=O)c3cc(C)ccc3O)cn2)cc1OC | -1.15
12 | Cn1c(SCC(=O)c2ccc(-c3ccccc3)cc2)nnc1-c1ccco1 | 0.189
13 | O=C(Nc1cccc2ccccc12)N1CCc2ccccc2C1 | -0.396
14 | CC1(C)Cc2c(sc3ncn(N)c(=N)c23)CO1 | -0.494
15 | Cc1ccc(C(=O)NC(NC(=O)c2ccc(C)cc2)c2cccc([N+](=O)[O-])c2)cc1 | 0.0868
16 | Cc1ccc(NS(=O)(=O)c2ccc(OCC(=O)Nc3cccc([N+](=O)[O-])c3)c(C)c2)cc1 | -0.0659
17 | NC(=O)CS(=O)(=O)c1nc2ccccc2n1CC(=O)N1CCCCC1 | 0.0496
18 | CC(=O)Nc1ccc(C(=O)OCC(=O)NC(=O)NC(C)(C)C)cc1 | -0.0333
19 | COc1ccccc1N1C(=O)CC(Nc2ccc(N3CCOCC3)cc2)C1=O (centres undefined) | -0.136
20 | COc1cc(C(=O)NCC(c2ccco2)N(C)C)cc(OC)c1OC (centres undefined) | -0.242
21 | CS(=O)(=O)N(CC(=O)NCc1ccccc1)Cc1ccc(Cl)cc1 | -0.233
22 | CC(C)(C)c1ccc(-c2nc(C=O)c3ccccn23)cc1 | -0.464
23 | CS(=O)(=O)N(CC(=O)N1CCN(c2ccccc2)CC1)c1cc(C(F)(F)F)ccc1Cl | -0.525

Row | Compound | z-score
24 | O=C(NN1C(=O)C2C(c3ccccc3)C=CC(c3ccccc3)C2C1=O)c1ccccc1 (centres undefined) | 0.374
25 | O=C1CC(c2ccc(Cl)cc2)n2nc(N3C(=O)c4ccccc4C3=O)nc2N1 (centres undefined) | -0.261
26 | CC(C)Oc1ccc(C2c3c(oc4ccccc4c3=O)C(=O)N2CCCN2CCOCC2)cc1 (centres undefined) | -0.432
27 | Fc1ccc(NC(=S)NN=C2CCCCCC2)cc1 | active: 12
28 | CCCCCn1c(N2CCC(Cc3ccccc3)CC2)nc2c1c(=O)[nH]c(=O)n2C | -0.393
29 | CN(C)Cc1ccc(O)c(CCc2ccccc2)n1 | -0.201
30 | COC(=O)C1CCN(C(=O)CCC2CCCCC2)CC1 | -0.476
31 | C/C=C/C(=O)OCC(=O)Nc1c(Cl)cccc1Cl | 0.337
32 | COc1ccc(C2CC(c3ccc(OC)cc3)n3nc(NC(=O)c4ccco4)nc3N2)cc1 (centres undefined) | -0.483
33 | CCC(=O)Nc1ccc(NC(=O)c2ccc3c(c2)OCO3)cc1 | -0.405
34 | CC(C)Oc1ccc(C(=O)Nc2ccccc2N2CCCC2)cc1 | -0.324
35 | O=C(O)Cn1c(P(=O)(O)c2ccccc2)nc2ccccc21 | -0.499
36 | CCc1c(C)nc(SCC(=O)Nc2ccc(Br)cc2)[nH]c1=O | -0.233
37 | O=C1C2C3C=CC(C4CC34)C2C(=O)N1Cc1ccco1 (centres undefined) | 0.448
38 | Cc1nnc(SC(C)C(=O)NC2CCCc3ccccc32)n1-c1ccccc1 (centres undefined) | -0.0715
39 | Cc1ccccc1C(=O)NC(=S)Nc1ccc(S(=O)(=O)N2CCOCC2)cc1 | -0.275
40 | O=C(CCc1ccc(S(=O)(=O)N2CCOCC2)cc1)Nc1nccs1 | -0.204
41 | O=C(C1CCCO1)N(Cc1ccccc1)c1ccccc1 (centres undefined) | -0.415
42 | CCOC(=O)COc1ccc(S(=O)(=O)N2CCc3ccccc3C2)cc1 | -0.357
43 | O=C(NCc1ccncc1)Nc1cccc(Cl)c1 | 0.129
44 | CC(C)CC(=O)NC(=S)Nc1nc(-c2cccc3ccccc23)cs1 | 2.97
45 | CCOC(=O)c1cc(-c2ccccc2)n(CCC(=O)N2CCN(c3ccc(OC)cc3)CC2)c1C | -0.203
46 | COc1ccc(N2C(=O)NC3CC2(C)Oc2ccc(Br)cc23)cc1OC (centres undefined) | -1.01

Row | Compound | z-score
47 | Cc1ccc(S(=O)(=O)N/N=C/c2cn(C)nc2C)cc1 | -0.0969
48 | CCCCN1CCc2c1nc1ccc(Br)cc1c2N | 0.536
49 | COc1ccc(-c2cc(C(F)(F)F)n3nc(C(=O)NCc4ccco4)cc3n2)cc1OC | 0.0487
50 | CC1=CC(C)(C)N(C(=O)c2ccccc2)c2ccccc21 | 0.192
51 | COc1ccc(OC)c(C2/C(=C(\O)c3ccc(OC)c(Cl)c3)C(=O)C(=O)N2CCN(C)C)c1 (centres undefined) | -0.393
52 | CC(C)NC(=O)c1onc(CSc2ccc(F)cc2)c1C(=O)O | -0.0064
53 | CC(C)n1cnc2cc(NCc3ccco3)ccc21 | -0.703
54 | CC1(C)CC(=O)C(N=Nc2c(Cl)cc(Cl)cc2Cl)=C(O)C1 | -0.601
55 | Cc1[nH]nc(N=CC2=C(O)CC(c3ccco3)CC2=O)c1-c1ccccc1 (centres undefined) | 0.835
56 | Cc1occc1-c1nnc(SCC(=O)c2cc3ccccc3oc2=O)o1 | -0.267
57 | O=S1(=O)CC(O)C(Nc2ccccc2)C1 (centres undefined) | -0.341
58 | Brc1cc2c(cc1COc1ccc(-c3nn[nH]n3)cc1)OCO2 | 0.281
59 | Cc1ccccc1NC(=O)/C(C#N)=C/c1ccsc1 | -0.272
60 | COCCn1nnnc1C(C(C)C)N1CCOCC1 (centres undefined) | -0.214
61 | CN(c1ccccc1)S(=O)(=O)c1ccc(Cl)c(C(=O)Nc2nc3ccccc3[nH]2)c1 | -0.226
62 | CC(=O)Nc1ccc2c(c1)ncn2C1CCCCC1 | 0.387
63 | Cc1cc(Oc2cnn(C(C)(C)C)c(=O)c2Cl)cc(C(C)C)c1 | -0.133
64 | COc1ccccc1NC(=O)CSCC(N)=O | 0.821
65 | Cc1cccc(NCCNc2cccc(C)c2)c1 | -0.488
66 | S=C(NCC1CCCO1)Nc1ccc(Cl)cc1Cl (centres undefined) | 0.145
67 | O=C(O)C1CC=CCC1C(=O)Nc1cccc(Cl)c1 (centres undefined) | -0.0814
68 | O=C(CCC(=O)c1ccc(F)cc1)OC1CCOC1=O (centres undefined) | -0.0455
69 | COCc1cc(C)nc(N2CCc3ccccc32)c1C#N | -0.0247

Row | Compound | z-score
70 | CCOC(=O)CC1=CSC2=NS(=O)(=O)CCN12 | -0.784
71 | CCOc1ccc(OCc2ccc(C(=O)NCC3CCCO3)o2)cc1 (centres undefined) | -0.557
72 | CC(CN1CCOCC1)OC(=O)c1ccccc1Br (centres undefined) | -0.369
73 | O=C(O)c1ccc(/C=N/NC(=O)c2cc(-c3cccs3)nc3ccccc23)cc1 | -0.177
74 | Cc1cc(OCC(=O)Nc2ccc(S(=O)(=O)N3CCN(C)CC3)cc2)cc(C)c1Cl | 0.455
75 | COc1ccccc1CNC(=O)CCCOc1cc(=O)n(C)c2ccccc12 | -0.13
76 | c1cc2c(cc1Oc1nc(N3CCOCC3)nc(N3CCOCC3)n1)OCO2 | -0.154
77 | Cc1cccc2sc(N(CCCN(C)C)C(=O)c3cc4ccccc4oc3=O)nc12 | 0.344
78 | CCOC(=O)N/N=C/c1ccc(N2CCOCC2)s1 | -0.261
79 | COc1cc(OC)nc(NC(=O)CS(=O)(=O)c2ccccc2)n1 | -0.906
80 | COc1ccc(C(C)=O)cc1CN1C(=O)NC2(CCCCC2C)C1=O (centres undefined) | 0.176
81 | O=C(COC(=O)c1ccc(CSc2ccc(Cl)cc2)cc1)Nc1ccccc1 | -0.179
82 | c1ccc(-c2ccc(-c3cnc4n3CCCCC4)cc2)cc1 | 0.704
83 | C=C(C)C1CC=C(CN2CCC(O)CC2)CC1 (centres undefined) | 0.257
84 | COc1cc(SC)ccc1C(=O)NCc1ccc(C)cc1 | -0.6
85 | Cn1cccc1/C=C1\SC(=O)N(c2ccccc2)C1=O | -0.564
86 | O=C1CC(c2cccc([N+](=O)[O-])c2)c2ccc3ccccc3c2N1 (centres undefined) | -0.494
87 | COc1cccc(C(=O)Nc2ccc(NC(=O)c3ccco3)nc2)c1 | 0.861
88 | Cc1nc2ncnn2c(N2CCC(C(=O)NCC3CCCO3)CC2)c1Cc1ccccc1 (centres undefined) | 0.813
89 | O=C(O)c1cc2nc3c(c(C(F)(F)F)n2n1)CCc1ccccc1-3 | 1.97
90 | Cn1nnnc1SCC(=O)c1cccs1 | 0.759
91 | COc1cc(/C=C(\NC(C)=O)C(=O)Nc2cccc(O)c2)ccc1OC(C)=O | -0.211
92 | COc1ccc(C(=O)N2CCC(C(=O)Nc3cccc(C)c3)CC2)cc1OC | -0.234

Row | Compound | z-score
93 | COc1ccc(NC(=O)Nc2cccc(OC)c2)cc1 | 0.279
94 | O=C(NC(=S)Nc1nc2ccccc2s1)c1cccs1 | active: 11.7
95 | O=C(Nc1cccnc1)c1ccccc1-c1nc(-c2ccccc2F)no1 | -0.626
96 | COc1cccc(/C=N/c2sc(Cc3ccccc3)c(C)c2C(N)=O)c1O | -0.714
97 | Fc1ccc(Nc2ccnc(Nc3ccc(F)cc3)n2)cc1 | 0.105
98 | CCCCCCCCCC(=O)N/N=C(\C)c1cccnc1 | -0.69
99 | CCOc1ccccc1OCCCC(=O)Nc1sccc1C(N)=O | 0.813
100 | COC(=O)c1ccc2c(c1)C(=O)N(C1CCCCC1)C2=O | 0.304
101 | Cc1csc(NC(=O)CSc2nnc3c4ccccc4nc(C(C)(C)C)n23)n1 | 0.904
102 | O=C(Nc1ccc(-n2cnnn2)cc1)C1CCCCC1 | -0.644
103 | Cc1cccc(-n2c(C)n[nH]c2=S)c1C | -0.0967
104 | CCCCCCn1c(COc2ccccc2F)nnc1SCC(=O)N1c2ccccc2NC(=O)C1(C)C | -0.0453
105 | COCCCNC(=S)Nc1ccc(CC(=O)O)cc1 | -0.00852
106 | Cc1ccc(C(=O)CSc2nc(C)cc(=O)[nH]2)cc1 | -0.183
107 | Cc1cc(C)nc(N/N=C/c2ccccc2OCc2cccc(Br)c2)n1 | -0.027
108 | CC(C)(C)c1csc(NC(=O)c2cccs2)n1 | -0.739
109 | COc1ccc(/C(N)=N/OC(=O)c2cccc([N+](=O)[O-])c2)cc1 | -0.162
110 | Cc1cc2n(n1)C(c1sccc1C)Nc1ccccc1-2 (centres undefined) | -1.74
111 | OC1(c2ccccc2)CCN(Cc2ccccc2)C2CCCCC21 (centres undefined) | 0.483
112 | CCN(CCNC(=O)C1CCCN(S(=O)(=O)c2cnc[nH]2)C1)c1ccccc1 (centres undefined) | -0.161
113 | COCCNC(=O)C(C)OC(=O)c1cc2sccc2n1C (centres undefined) | 0.0756
114 | CC(=O)/C(=N\Nc1ccccc1)Sc1nncn1C | -0.337

From PubChem BioAssay AID488969 (Vanderbilt High Throughput Screening Facility, 2010)
